About 65 (0.1%) of roughly 45,000 compounds were called active. Calls follow the shape of the dose curve; as a rule, active = well fitted activation curve with a large enough effect; inconclusive = small, poorly fitted or top-dose-only effect; inactive = no such curve, though single readings can be large or run the other way. This is one part of the list.
Biological target: Galactocerebrosidase (Homo sapiens) (UniProt P54803)
Assay: A Novel Cell-Based Assay to Identify Small Molecules for B -Galactocerebrosidase; also: 0% is about no effect; nearly all actives have a fitted effect of over 65% in size
Settings: 145M-Twi-hGALC-G270D cells (Twitcher mouse brain line with human GALC G270D), HMU-beta-Gal fluorescence, 48 h; series mostly up to 57.5 µM; activation: at the top concentration
In short: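 Fluorogenic HMU-b-Gal hydrolysis (0.1 mM final, pH 5.2 citrate-phosphate with 1 mg/mL sodium taurocholate; carbonate stop buffer) measures mutant GALC activity after compound treatment of live 145M-Twi Twitcher brain cells stably carrying human GALC-G270D, with wild-type GALC line alongside; activation sought.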

UniProt P54803, sequence (P54803 whole entry, looked up): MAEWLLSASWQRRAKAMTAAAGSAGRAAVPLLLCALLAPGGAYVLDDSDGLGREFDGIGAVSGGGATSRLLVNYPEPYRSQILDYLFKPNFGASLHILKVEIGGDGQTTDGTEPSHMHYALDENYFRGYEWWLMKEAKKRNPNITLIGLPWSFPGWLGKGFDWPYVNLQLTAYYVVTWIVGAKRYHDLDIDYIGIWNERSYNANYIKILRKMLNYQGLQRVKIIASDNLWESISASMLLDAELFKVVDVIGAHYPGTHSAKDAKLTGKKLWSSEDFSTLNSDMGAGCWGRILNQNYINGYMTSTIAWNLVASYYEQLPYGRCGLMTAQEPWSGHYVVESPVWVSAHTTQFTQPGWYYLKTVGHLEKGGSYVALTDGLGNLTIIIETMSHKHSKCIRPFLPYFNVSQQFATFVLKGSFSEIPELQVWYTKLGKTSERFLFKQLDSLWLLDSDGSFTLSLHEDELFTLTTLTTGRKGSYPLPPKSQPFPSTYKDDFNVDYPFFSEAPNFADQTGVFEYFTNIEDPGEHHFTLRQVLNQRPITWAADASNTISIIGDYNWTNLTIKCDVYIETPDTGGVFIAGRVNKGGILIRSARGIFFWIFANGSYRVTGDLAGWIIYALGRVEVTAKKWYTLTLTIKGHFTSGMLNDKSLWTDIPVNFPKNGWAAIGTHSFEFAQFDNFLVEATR

activation, inactive:
CCN(CC)CCCC(C)Nc1ccnc2cc(Cl)ccc12 (centres undefined) -32.9% [at 23.8 µM]
Cc1cc(C)cc(N2CCn3c2nc2c3c(=O)n(C/C=C/c3ccccc3)c(=O)n2C)c1 -0.912%
Cc1ccc2nc(-c3ccc(F)cc3)c(NC(C)(C)CC(C)(C)C)n2c1 -31.9%
Cc1c(Cl)cccc1NC(=O)CSc1ccc(-c2ccccn2)nn1 5.09%
CS(=O)(=O)c1ccc([C@@H](O)[C@@H](CF)NC(=O)C(Cl)Cl)cc1 -8.22%
Cc1ccc(C)c(NC(=O)CCOc2ccccc2)c1 -3.56%
COc1ccc(C)cc1NC(=O)C(=O)NCC(c1cccnc1)N1CCN(c2ccccc2F)CC1 (centres undefined) -0.758%
O=C(NCc1cccc(Cl)c1)c1cc2c(s1)-c1ccccc1SC2 -1.76%
O=C(Cn1c(=O)n(-c2ccc(Cl)cc2)c(=O)c2c3c(sc21)CCCCC3)Nc1cccc(Cl)c1 -12.3%
Cc1ccc2cccc(NC(=O)c3cccc4c(Br)cccc34)c2n1 -10.3%
CCCn1cc(S(=O)(=O)c2ccc(C)c(C)c2)c(=O)c2cc(F)c(N3CCC(C)CC3)cc21 -10.3%
CCn1c(=O)n(-c2ccc3c(c2)OCO3)c2nc(-c3cccc(OC)c3OC)nc(C(N)=O)c21 -6.01%
COc1ccc(N2CCN(C(=O)c3ccc4c(c3)N(Cc3cccc(Cl)c3)C(=O)c3ccccc3S4(=O)=O)CC2)cc1 -14.4%
Cc1cc(C)c2nc(N3CCCC(C(=O)NCc4ccccc4F)C3)sc2c1 (centres undefined) -14%
CCOC(=O)CC(NC(=O)c1cc2c(=O)n3cccc(C)c3nc2s1)c1ccc(OCC)c(OC)c1 (centres undefined) -7.4%
CCc1ccccc1NC(=O)Cn1c(=O)n(-c2cccc(C)c2)c(=O)c2c1c1cc(OC)ccc1n2C -9.8%
CC(C)OCCCNC(=O)Cc1ccc(NC(=O)N2CCCCc3ccccc32)cc1 -10.9%
CCOc1ccccc1N(C)C(=O)c1cc2c(s1)-c1ccccc1OC2 -15.4%
COc1cccc(NC(=O)C2CCN(S(=O)(=O)c3c(C)noc3C)CC2)c1 -11%
Cc1ccc(C(=O)COC(=O)c2cc(-c3cccs3)nc3ccccc23)cc1 -5.62%
CCc1cccc(NC(=O)Nc2cn(C)c(=O)c3ccccc23)c1 -13.7%
Cc1ccc(S(=O)(=O)c2cn(CC(=O)Nc3ccc(F)cc3)c3cc4c(cc3c2=O)OCO4)cc1 -12.1%
COc1ccc(-c2noc(CCC(=O)Nc3cccc(C)c3C)n2)cc1OC -17.2%
Cc1ccc(NC(=O)Cn2c(=O)n(CC(=O)NCCc3ccccc3)c(=O)c3ccccc32)cc1C -13.9%
CCCCc1nc(SCC(=O)Nc2ccc(S(N)(=O)=O)cc2)n[nH]1 -3.11%
Cc1nn2c(C)c(C(=O)NCc3ccc(OC(C)C)cc3)cnc2c1-c1ccc(F)cc1 -16.5%
COc1ccc(Cn2ccnc2SCC(=O)Nc2nnc(C)s2)cc1 -10.5%
COC(=O)c1ccc(NC(=O)CN(C)S(=O)(=O)c2ccc(Br)s2)cc1 -1.78%
Cc1ccc2nc(-c3ccc(Cl)s3)c(Nc3ccc4c(c3)OCCO4)n2c1 -31.2%
COc1cccc(-n2c(SCc3ccc(F)cc3)nc3c([nH]c4ccccc43)c2=O)c1 -33.9%
CC(=O)c1c(C)oc2c1cc(NS(=O)(=O)c1ccc(C(C)(C)C)cc1)c1ccccc12 -3.81%
COc1ccc(NC(=O)Cn2c(=O)c3ccccc3n3nncc23)c(OC)c1 -14.3%
Cc1cc(C)c(NC(=O)Cn2c(=O)n(Cc3ccc(C(=O)NCc4ccc5c(c4)OCO5)cc3)c(=O)c3ccccc32)c(C)c1 -3.14%
Cc1ccc(CNC(=O)C(C)n2nc(C)c3sc4ccccc4c3c2=O)cc1 (centres undefined) -14.2%
CCN(CCCNC(=O)c1nn(-c2ccc(C)cc2)c(=O)c2c1c1ccccc1n2C)c1cccc(C)c1 -16.3%
Cc1ccc(CNC(=O)c2ccc(N3CCCC3)c(NC(=O)Nc3ccc(F)c(Cl)c3)c2)cc1 -9.36%
Cc1ccc2c(c1)-c1c(c(C(=O)N3CCN(c4cc(C)ccc4C)CC3)nn1C)CS2 -13.2%
O=C(O)Cn1c(C(=O)Nc2nc(-c3ccccc3Cl)cs2)cc2ccccc21 -18.8%
COc1cccc(CNC(=O)CN2C(=O)COc3ccc(S(=O)(=O)N4CCOCC4)cc32)c1 -14.1%
CCn1c(=O)cc(OCC(=O)N2CCN(c3cccc(C)c3C)CC2)c2ccccc21 -9.06%
Cc1cccc(NC(=O)CN2C(=O)C(c3ccc(F)cc3)=NC23CCCCCC3)c1 -12.3%
CC(C)Cc1nn2c(=O)cc(COC(=O)c3ccc(NC(=O)C4CCCCC4)cc3)nc2s1 -8.62%
COc1cccc(C(=O)Oc2c(Sc3ccc(C)cc3)c(C)nn2C(C)(C)C)c1OC -8.08%
COc1ccc(NC(=O)c2cc(S(=O)(=O)N3CCCC3)ccc2OC)cc1 -1.95%
Cc1cccc(C)c1NC(=O)c1ccccc1C(=O)O -11.8%
COc1ccc(Nc2nc3ccc(Cl)cc3nc2-n2nc(C)cc2C)cc1 -4.69%
CCOc1ccc(C(=O)NCC(c2cccs2)S(=O)(=O)c2ccccc2)cc1 (centres undefined) -7.93%
CCOc1ccc(C(=O)NCCSc2c(C)[nH]c3ccccc23)cc1OCC -16.6%
Cc1cccc(C(=O)N2CCc3cc(CNC(=O)CSc4ccccc4)ccc32)c1 -10.7%
CCOc1ccc(NC(=O)c2cc(C)nc3c2c(C)nn3-c2ccc(C)cc2)cc1 -19.7%
CCOc1ccccc1NC(=O)c1ccc(F)c(S(=O)(=O)N2CCN(c3ccc(F)cc3)CC2)c1 -10.4%
Cc1ccccc1CNC(=O)CSc1nnc(C)c2c(C)n(-c3ccccc3)nc12 -15.5%
COc1ccccc1CNC(=O)c1cc2c(s1)-c1ccc(Cl)cc1SC2 -13.6%
CCN(CC)CCCNC(=O)CCC(=O)NNc1nc2ccccc2c2nc(C)nn12 -10.2%
COc1ccccc1N1CCN(C(CNC(=O)C(=O)NCc2cccnc2)c2cccnc2)CC1 (centres undefined) -11%
CCOc1cccc(CC(=O)N2CCc3c([nH]c4ccc(OC)cc34)C2c2ccc(F)cc2)c1OCC (centres undefined) -12%
O=C(COc1ccc(Cl)cc1)Nc1nnc(S(=O)(=O)N2CCCCCC2)s1 -12.6%
Cc1ccc(S(=O)(=O)n2nc(C)c(S(=O)(=O)N3CCCCCC3)c2C)cc1C -10.2%
Cc1ccn2c(Nc3ccc4c(c3)OCCO4)c(-c3ccccc3O)nc2c1 -7.72%
CCCCOc1ccc(C2C(C(=O)Nc3ccccc3OC)=C(C)Nc3nnnn32)cc1OC (centres undefined) -17.6%
CC(=O)N1CCCc2cc(S(=O)(=O)N3CCC(C(=O)Nc4ccc(C)cc4Cl)CC3)ccc21 -15%
Cc1ccc(-c2nn(-c3ccccc3)c3c2cnc2ccccc23)cc1C -3.37%
Cc1ccc(CNC(=O)c2ccc(Nc3nc4ccccc4n4nnnc34)cc2)cc1 -15.9%
Cc1ccc(NC(=O)c2oc3c(c2C)-c2[nH]ncc2CC3)c(Cl)c1 -14.1%
COc1cc2c(cc1OC)[C@@H]1CC(=O)[C@@H](CC(C)C)CN1CC2 -17.3%
Cc1cc(NC(=O)Nc2nnc(N3CCCCCC3)s2)ccc1Br -15.6%
Cc1cc(C)cc(NS(=O)(=O)c2ccc3[nH]cc(C(=O)NCCc4ccccc4)c(=O)c3c2)c1 -10.5%
COc1ccc(CCNC(=O)c2ccc3c(c2)N(Cc2ccccc2)CCS3)cc1OC -15.1%
Cc1ccc(C(=O)N2CCn3c4c(c5cc(C)ccc53)CCCC42)cc1 (centres undefined) -15.9%
CCOc1ccc(NC(=O)C(=O)NCCc2csc(-c3ccc(C(F)(F)F)cc3)n2)cc1 -14.2%
NNC(=O)CP(=O)(c1ccccc1)c1ccccc1 -2.55%
CC(C)c1ccc(NS(=O)(=O)c2cc(Br)cc3c2N(C(=O)C2CC2)CC3)cc1 -6.74%
Cc1ccc(S(=O)(=O)N(CCc2ccccc2)CC(=O)Nc2ccccc2C)cc1 -33.7%
Cn1cnc(S(=O)(=O)N2CCCC(C(=O)NCc3ccc(F)cc3)C2)c1 (centres undefined) -7.19%
COc1ccc(OC)c(-c2noc(N3CCN(c4ccc(Cl)cc4)CC3)n2)c1 -13.8%
Cc1ccc(S(=O)(=O)N2CCN(Cc3cc(Br)ccc3O)CC2)cc1 -0.206%
Cc1ccn2c(=O)cc(COc3ccc(NC(=O)COc4ccccc4)cc3)nc2c1 -8.77%
Cn1cc(S(=O)(=O)N2CCCCCC2)cc1C(=O)N1CCN(c2cccc(C(F)(F)F)c2)CC1 -12.4%
CCC(=O)N1CCc2cc(Br)cc(S(=O)(=O)N3CCCC(C(=O)NCc4ccc(F)cc4)C3)c21 (centres undefined) -4.15%
COc1ccc(-n2c(/C=C/c3cccc(C(F)(F)F)c3)nc3ccccc3c2=O)cc1Cl -9.42%
CCOc1ccccc1NC(=O)C1CCN(S(=O)(=O)c2ccc3[nH]c(=O)ccc3c2)CC1 6.78%
COc1cc(-c2nc(-c3ccc4c(c3)[nH]c(=O)n4C)no2)cc(OC)c1OC -14.8%
CCOc1ccc(CCNC(=O)C2CCN(Cc3nc(-c4ccc(OC)c(OC)c4)oc3C)CC2)cc1OCC -5.35%
CCc1ccc(NC(=O)COC(=O)CCCC2=NS(=O)(=O)c3ccccc3N2)cc1 -1.57%
O=C1CSC2(C(=O)N(Cc3ccccc3)c3ccccc32)N1c1cccc(F)c1 (centres undefined) -32.1%
N#Cc1ccccc1NC(=O)C(=O)NCCc1csc(-c2ccc(C(F)(F)F)cc2)n1 -8.53%
O=S(=O)(c1ccc(Cl)cc1)c1nc(-c2cccc(Br)c2)oc1NCc1ccccc1 -17.8%
COc1ccc(CCn2c(=O)c3cccnc3n(CC(=O)Nc3c(C)cccc3C)c2=O)cc1OC -25.9%
CCc1cccc(C)c1NC(=O)Cn1c(=O)n(-c2ccc(C)cc2)c(=O)c2c1cnn2C -16.8%
COc1ccc(OC)c(NC(=O)c2ccc3c(SCC(=O)O)c4c(nc3c2)CCCC4)c1 -29.2%
Cc1cccc(CCNC(=O)c2ccc3c(c2)nc2n3CCC(C)C2)c1 (centres undefined) -20%
Cc1ccc2nc(COc3ccccc3NC(=O)c3ccccc3C)cc(=O)n2c1 -0.374%
COc1ccc(-c2nnc(SCC(=O)Nc3cc(OC)ccc3OC)nc2-c2ccc(OC)cc2)cc1 -12.8%
CCC(=O)N1c2ccccc2CC1C(=O)NCc1cccc(OC)c1OC (centres undefined) -11.2%
